Source: article PMC4336329 (PLoS ONE, 2015)
Hit rate of the full screen: of about 310,000 compounds, about 2,200 (0.71%) showed an effect of 50% or more. Effects have a minus sign here. Some of the results follow.

The molecules below were run against human ether-à-go-go-related gene (hERG) potassium channel (human, UniProt Q12809) (assay: primary screen, population patch clamp on CHO cells stably expressing hERG).
Sequence of human ether-à-go-go-related gene (hERG) potassium channel (Q12809 whole entry, looked up): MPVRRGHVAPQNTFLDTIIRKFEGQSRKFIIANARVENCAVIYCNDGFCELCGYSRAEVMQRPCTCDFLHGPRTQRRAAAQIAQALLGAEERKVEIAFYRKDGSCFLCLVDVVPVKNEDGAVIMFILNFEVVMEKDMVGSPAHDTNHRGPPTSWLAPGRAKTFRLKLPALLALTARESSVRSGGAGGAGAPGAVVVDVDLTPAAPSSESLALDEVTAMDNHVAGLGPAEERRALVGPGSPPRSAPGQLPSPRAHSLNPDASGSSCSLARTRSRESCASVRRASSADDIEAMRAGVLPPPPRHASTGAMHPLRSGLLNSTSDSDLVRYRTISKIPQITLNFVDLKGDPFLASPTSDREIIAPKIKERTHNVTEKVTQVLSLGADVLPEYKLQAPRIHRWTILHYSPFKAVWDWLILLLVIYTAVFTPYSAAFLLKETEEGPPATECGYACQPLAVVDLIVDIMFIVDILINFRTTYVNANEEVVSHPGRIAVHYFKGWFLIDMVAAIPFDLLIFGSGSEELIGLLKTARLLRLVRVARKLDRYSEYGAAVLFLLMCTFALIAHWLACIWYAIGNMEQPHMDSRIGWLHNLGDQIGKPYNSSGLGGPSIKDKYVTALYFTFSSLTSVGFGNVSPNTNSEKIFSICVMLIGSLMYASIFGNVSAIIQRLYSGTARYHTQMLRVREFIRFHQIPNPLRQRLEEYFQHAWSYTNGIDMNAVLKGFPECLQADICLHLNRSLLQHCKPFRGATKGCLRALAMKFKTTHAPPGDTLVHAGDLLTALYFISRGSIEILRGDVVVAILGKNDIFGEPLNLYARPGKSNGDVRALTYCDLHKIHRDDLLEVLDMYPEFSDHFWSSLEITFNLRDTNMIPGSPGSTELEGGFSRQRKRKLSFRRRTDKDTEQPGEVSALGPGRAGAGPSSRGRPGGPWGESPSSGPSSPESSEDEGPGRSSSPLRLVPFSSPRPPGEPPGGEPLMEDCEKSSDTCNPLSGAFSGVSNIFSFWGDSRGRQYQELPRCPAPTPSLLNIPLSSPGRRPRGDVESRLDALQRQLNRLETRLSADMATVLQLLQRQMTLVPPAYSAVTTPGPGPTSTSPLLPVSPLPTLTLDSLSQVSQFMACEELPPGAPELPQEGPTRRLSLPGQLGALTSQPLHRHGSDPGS

SMILES	hERG current change (%, negative = inhibition) at 1uM [%]
COc1cccc(/C=N/NC(=O)CNC(=O)COc2cccc(C)c2)c1O	7.09
Cc1ccsc1/C=N/NC(=O)Cc1cccn1C	2.33
COc1ccccc1-c1nc2c3ccccc3nc(=S)n2[nH]1	32.3
CCNc1nc(ON=C(C)C)nc(N(C)C)n1	3.92
Cc1onc(-c2c(Cl)cccc2Cl)c1NC(=O)NNc1ccccc1	0.77
CCCc1cc(=O)[nH]c(SCC(=O)NCc2ccc3c(c2)OCO3)n1	-6.32
Cc1cc(C)c2c(c1)/C(=N/NC(=S)Nc1ccc(F)cc1)CCC2	9.47
CCOC(=O)C1=C(COC(=O)/C=C/c2ccc([N+](=O)[O-])cc2)NC(=O)NC1C (centres unmarked)	-23.8
C/C(=N\NC(=O)Cn1nc(C)c([N+](=O)[O-])c1C)c1ccco1	21.4
COc1ccc(OC)c(S(=O)(=O)N2CCC(C(=O)NC3CCCCCC3)CC2)c1	9.77
NC(=O)C1CC(=O)N(c2ccc(OCC(=O)Nc3ccc(F)cc3)cc2)C1 (centres unmarked)	6.18
CC1CN(CC(=O)c2c(N)n(Cc3ccccc3)c(=O)n(C)c2=O)CC(C)O1 (centres unmarked)	4.3
CC(=O)Oc1ccc(-c2cccc(C(=O)NCCCO)c2)cc1	8.54
Cc1ccc(S(=O)(=O)/N=C(/c2ccc(F)cc2)N2CCCCC2)cc1	1.25
CCCN1C(=O)c2cc(C(=O)NC3CCCCCC3)ccc2C1O (centres unmarked)	9.82
COc1cc(NC(=O)c2cccs2)c(OC)cc1NC(=O)Cc1ccccc1	9.29
CN(C)S(=O)(=O)Oc1ccsc1C(=O)Nc1ccc(Cl)cc1	10.5
CCOc1ccc(CCNC(=O)COC(=O)c2c(C)nn(-c3ccccc3)c2C)cc1OCC	3.56
CCC(=O)c1ccc(N2CCN(C(=O)c3cccc(F)c3)CC2)c(F)c1	-15
CC1(C)C(c2ccccc2)=NC(c2ccc(F)cc2)N1O (centres unmarked)	5.23
CC(C)CC(=O)Nc1c2c(nn1-c1ccc(F)cc1)CS(=O)C2 (centres unmarked)	16.1
O=C(NCc1ccccc1)c1ccc(NC(=O)c2ccccc2F)cc1	17.2
CCOC(=O)c1c(CN2CCCCC2)oc2ccc(O)cc12.Cl	-24.7

SMILES	hERG current change (%, negative = inhibition) at 1uM [%]
CC(=O)c1ccc(NC(=O)CN2CCOCC2)cc1.Cl	13.2
N/C(=N\OC(=O)c1ccc(Cl)cc1Cl)c1ccc(Cl)cc1	12.9
CN1CCN(c2ccc(CNS(=O)(=O)c3ccc(F)cc3Cl)cc2)CC1	1.07
COc1ccc(CCCC(=O)Nc2cc(C)ccc2OC)cc1	8.36
Cc1cc(N)n(-c2ncnc3scc(-c4ccccc4)c23)n1	-3.3
O=S(=O)(NCC1CCCO1)c1cnc(Cl)c(Br)c1 (centres unmarked)	10.9
N#Cc1ccc2[nH]cc(CCO)c2c1	21.1
O=C(O)CN1C(=O)c2cccc(Oc3ccc(Cl)cc3)c2C1=O	11.3
Cc1nc2c(-c3ccc(F)cc3)c(C)nn2c(C)c1CCC(=O)N1CCN(c2ccccn2)CC1	-9.95
COC(=O)c1sc(NC(=O)c2csc3c2CCCC3)nc1C	-3.04
CC1(C)CC(=O)C2=C(C1)OC(N)=C(C#N)C2Cc1ccccc1 (centres unmarked)	-0.943
COc1cccc(-c2nn[nH]n2)c1O	6.45
CCN(CC)CCNC(=O)C(C)c1nn(CC)c(=O)c2ccccc12.Cl (centres unmarked)	8.85
COC(=O)C(Cc1ccccc1)NC(=O)CNC(=O)c1sc2ccccc2c1Cl (centres unmarked)	12.6
COC(=O)C1CCN(CC(=O)Nc2sc3c(c2C#N)CCC3)CC1	-0.0934
CCOC(=O)C1=C(O)C(=O)N(Cc2ccccc2)CC1	10.1
COc1ccc(-c2sc3cc4c(cc3c2C#CCO)OCO4)cc1	17.1
S=c1[nH]nc(-c2ccco2)n1-c1ccc(Cl)cc1	4.22
COC(=O)c1sccc1NC(=O)c1c(Cl)cnn1C	-8.49
COc1ccc(N2CCN(Cc3nc4c(c(=O)[nH]c(=O)n4C)n3CCCc3ccccc3)CC2)cc1	-34.7
C#CCCC(=O)c1ccccc1/C=[N+](\[O-])c1ccccc1	9.72
CC(=O)Nc1ccc(NC(=S)NC(=O)c2ccc([N+](=O)[O-])c(C)c2)cc1	7
CCOC(=O)NC(NC(=O)OCC)C(=O)c1ccc(F)cc1	4.86

SMILES	hERG current change (%, negative = inhibition) at 1uM [%]
Cc1ccccc1N1C(=O)CC(N2CCN(C(=O)c3ccco3)CC2)C1=O (centres unmarked)	12.3
COc1cc(O)c(C(CCN2CCCC(C)C2)c2ccc(N(C)C)cc2)c(OC)c1 (centres unmarked)	-9.72
O=C(CNC(=S)N(CCCN1CCOCC1)Cc1cccs1)NC1CC1	12.6
COc1cccc(C2C(C#N)=C(C)NC3=C2C(=O)CC(C)(C)C3)c1 (centres unmarked)	3.23
CCOC(=O)N1CCc2c(sc(NC(=O)c3ccc(S(=O)(=O)N4CCCC4)cc3)c2C#N)C1	19.2
CC(Cc1ccsc1)NC(=O)CCc1nnc(COc2ccccc2)o1 (centres unmarked)	11.4
CSc1nc(NCC(C)C)nc(N2CCOCC2)n1	-2.7
Cc1ccc(C2=C/C(=C/c3cccs3)C(=O)O2)cc1	1.48
O=C(Nc1cccnc1)c1ccc(CN2CCc3ccccc3C2)cc1	8.06
Cn1c(=O)c2c(ncn2CC(=O)N2CCN(C(=O)c3ccco3)CC2)n(C)c1=O	4.86
NC(=O)CC(NC(=O)c1ccccc1)c1ccc(N2CCCCCC2)c([N+](=O)[O-])c1 (centres unmarked)	-3.96
Cn1c(SCC(=O)Nc2ccc(N3CCOCC3)cc2)nnc1-c1ccccc1	5.03
CC(C)c1ccc(S(=O)(=O)N2CCN(C(=O)Cc3ccsc3)CC2)cc1	15.3
C/C(=N\NC(=O)c1ccc(NS(=O)(=O)c2cccs2)cc1)c1ccc2c(c1)OCO2	9.38
COC(=O)CCC[C@H]1CC2(C[C@H](CCCO[Si](C)(C)C(C)(C)C)N1C(=O)OC(C)(C)C)OCCO2	4.33
COc1ccc(N(CC(=O)NC2CCCCC2)C(=O)c2ccc(C)s2)c(OC)c1	12.7
CCCC(C)NC(=O)Cc1ccccc1 (centres unmarked)	-2.94
Cc1c(Br)c([N+](=O)[O-])nn1CC(=O)NCc1ccccn1	18.8
COc1ccc(CC(=O)NCC2CCCN(Cc3ccccc3Cl)C2)cc1 (centres unmarked)	19.2
O=C(CCC(=O)N(CC(=O)NC1CCCC1)c1ccc(F)cc1)Nc1nccs1	15.3
C=C1c2cc(C)ccc2NC(=O)N1c1ccccc1	1.15
CN(C)CCCN(C(=O)c1ccc(S(=O)(=O)N2CCCCCC2)cc1)c1nc2cc3c(cc2s1)OCCO3.Cl	-10.1
COc1ccccc1NCCC#N	12

SMILES	hERG current change (%, negative = inhibition) at 1uM [%]
O=C(Nc1cccc(Cl)c1)c1cc(N=Nc2ccc([N+](=O)[O-])cc2Cl)ccc1O	18.4
CCOC(=O)c1ccc(-n2c(=S)sc3c(=O)[nH]c(C)nc32)cc1	1.63
Cn1c(=O)oc2cc(S(=O)(=O)N3CCCCC3)ccc21	12.6
O=C(Nc1ccc2oc(-c3ccccc3F)nc2c1)c1cncc(Br)c1	2.12
COc1cccc(N/N=C(\C#N)S(=O)(=O)C(C)(C)C)c1	21.8
COc1cc(/C=N/NC(=O)CCn2cnc(-c3ccccc3)c2-c2ccccc2)ccc1O	9.24
CCOC(=O)c1c(C)nn(-c2ccc(NC(=O)c3cccs3)cc2)c1C	14.5
COc1ccc(N2C(=O)CCC(C(=O)O)C2c2ccc(F)cc2)cc1 (centres unmarked)	20.1
Cc1cc(Cl)ccc1C(=O)C1CCCN(C(=O)c2nonc2C)C1 (centres unmarked)	7.64
COc1ccc(S(=O)(=O)N(CC(=O)N2CCN(C)CC2)C2CCCCC2)cc1OC	6.98
COc1ccccc1N1CCN(C2=Nc3cccc4cccc2c34)CC1	-21.1
CCOc1ccc(NC(=S)N2CCC(N(C)CCN3CCOCC3)CC2)cc1	12.4
CN1C(=O)C2(OCCCO2)c2cc(Cl)ccc21	16.1
Cc1cc(C)n(-c2ccc(C(=O)C(C#N)c3nc4ccccc4n3C)cc2)n1 (centres unmarked)	10.2
COc1ccc([N+](=O)[O-])cc1NCc1ccccc1.O=C(O)C(=O)O	4.39
O=C(NCc1ccco1)c1ccc2c(c1)S(=O)(=O)c1ccccc1C2=O	5.46
O=C(CCn1c(=O)[nH]c2ccsc2c1=O)N1CC(=O)N(CCc2ccccc2)C(=O)C1	4.97
Cc1nc(C(F)(F)F)c(C(=O)NC(=O)Nc2ccc(OC(F)(F)F)cc2)s1	-0.0309
CC(=O)C1=C(O)C(=O)N(Cc2cccnc2)C1c1ccccc1 (centres unmarked)	10.8
O=C(Cc1cn2ccsc2n1)Nc1cccc2cnccc12	12.2
